According to publication PMC9619224:
These are yes or no findings as the source states them, for the method shown. Binding seen in cells or lysates may run through a third protein. Some entries that bind do so weakly or less than the wild type. For some assays here: Sequences can lack the tags named with a protein.

Protein sequences, listed by entry. Tags and fused reporters are not part of them.
UniProt Q8BFQ3: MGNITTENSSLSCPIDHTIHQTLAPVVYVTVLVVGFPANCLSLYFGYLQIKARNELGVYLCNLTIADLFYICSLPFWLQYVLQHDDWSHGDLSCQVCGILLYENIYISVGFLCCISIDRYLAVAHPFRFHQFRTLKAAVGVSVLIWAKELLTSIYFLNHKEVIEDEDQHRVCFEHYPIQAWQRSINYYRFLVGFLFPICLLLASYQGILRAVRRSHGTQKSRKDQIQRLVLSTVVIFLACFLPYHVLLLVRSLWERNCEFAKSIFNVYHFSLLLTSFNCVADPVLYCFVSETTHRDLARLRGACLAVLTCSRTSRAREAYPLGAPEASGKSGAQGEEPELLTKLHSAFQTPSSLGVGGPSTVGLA
UniProt Q9JKL1: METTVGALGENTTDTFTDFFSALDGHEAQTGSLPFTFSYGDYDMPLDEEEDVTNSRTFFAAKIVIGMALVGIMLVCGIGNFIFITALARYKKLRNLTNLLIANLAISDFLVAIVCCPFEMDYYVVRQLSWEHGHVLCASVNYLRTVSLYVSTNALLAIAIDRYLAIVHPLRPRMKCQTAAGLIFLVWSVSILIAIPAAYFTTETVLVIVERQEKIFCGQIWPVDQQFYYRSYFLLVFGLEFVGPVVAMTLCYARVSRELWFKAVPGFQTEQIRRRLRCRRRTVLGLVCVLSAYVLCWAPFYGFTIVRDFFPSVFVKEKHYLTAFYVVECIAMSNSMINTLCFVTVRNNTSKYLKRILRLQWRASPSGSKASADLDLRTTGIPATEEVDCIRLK
UniProt P35377: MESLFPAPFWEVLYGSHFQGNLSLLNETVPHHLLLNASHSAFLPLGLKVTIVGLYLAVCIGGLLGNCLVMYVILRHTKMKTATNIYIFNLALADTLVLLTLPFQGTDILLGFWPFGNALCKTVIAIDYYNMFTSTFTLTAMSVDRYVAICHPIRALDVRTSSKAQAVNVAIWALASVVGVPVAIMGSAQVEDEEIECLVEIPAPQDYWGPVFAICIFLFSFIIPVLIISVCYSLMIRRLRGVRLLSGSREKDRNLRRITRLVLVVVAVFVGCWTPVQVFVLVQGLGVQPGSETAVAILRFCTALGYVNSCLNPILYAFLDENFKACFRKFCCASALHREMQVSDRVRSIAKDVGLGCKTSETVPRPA
UniProt Q924H0: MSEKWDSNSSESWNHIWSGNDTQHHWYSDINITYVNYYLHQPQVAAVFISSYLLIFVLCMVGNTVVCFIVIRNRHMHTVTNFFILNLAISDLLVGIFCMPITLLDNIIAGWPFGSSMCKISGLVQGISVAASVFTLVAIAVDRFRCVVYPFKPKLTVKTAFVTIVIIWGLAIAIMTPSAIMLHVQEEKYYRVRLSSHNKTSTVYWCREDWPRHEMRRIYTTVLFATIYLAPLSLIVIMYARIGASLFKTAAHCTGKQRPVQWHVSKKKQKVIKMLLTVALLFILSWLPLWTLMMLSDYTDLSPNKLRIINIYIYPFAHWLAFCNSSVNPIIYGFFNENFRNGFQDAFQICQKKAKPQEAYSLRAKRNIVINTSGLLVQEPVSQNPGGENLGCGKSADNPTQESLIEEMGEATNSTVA
UniProt Q64326: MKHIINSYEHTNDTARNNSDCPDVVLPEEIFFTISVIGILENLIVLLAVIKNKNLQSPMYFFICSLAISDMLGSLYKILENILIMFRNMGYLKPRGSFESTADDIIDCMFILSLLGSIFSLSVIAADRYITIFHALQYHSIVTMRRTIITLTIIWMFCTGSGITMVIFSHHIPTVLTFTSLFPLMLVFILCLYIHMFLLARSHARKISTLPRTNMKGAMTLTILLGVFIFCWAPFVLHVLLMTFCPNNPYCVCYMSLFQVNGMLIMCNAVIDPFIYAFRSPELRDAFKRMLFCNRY

T1: Somatostatin receptor 5 (mouse) (UniProt O08858)
T1 sequence: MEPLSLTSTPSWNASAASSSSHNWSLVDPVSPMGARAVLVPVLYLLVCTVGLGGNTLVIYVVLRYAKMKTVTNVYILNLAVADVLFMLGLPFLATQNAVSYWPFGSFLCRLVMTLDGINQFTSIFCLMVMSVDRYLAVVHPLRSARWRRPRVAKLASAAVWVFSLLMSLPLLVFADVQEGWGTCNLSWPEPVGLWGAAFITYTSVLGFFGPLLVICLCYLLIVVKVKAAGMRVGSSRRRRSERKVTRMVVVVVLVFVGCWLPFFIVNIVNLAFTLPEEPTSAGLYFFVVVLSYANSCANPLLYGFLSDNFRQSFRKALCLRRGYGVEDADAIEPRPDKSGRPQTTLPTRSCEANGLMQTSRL

T2: Prostaglandin E receptor 3 (subtype EP3) (mouse) (UniProt P30557)
T2 sequence: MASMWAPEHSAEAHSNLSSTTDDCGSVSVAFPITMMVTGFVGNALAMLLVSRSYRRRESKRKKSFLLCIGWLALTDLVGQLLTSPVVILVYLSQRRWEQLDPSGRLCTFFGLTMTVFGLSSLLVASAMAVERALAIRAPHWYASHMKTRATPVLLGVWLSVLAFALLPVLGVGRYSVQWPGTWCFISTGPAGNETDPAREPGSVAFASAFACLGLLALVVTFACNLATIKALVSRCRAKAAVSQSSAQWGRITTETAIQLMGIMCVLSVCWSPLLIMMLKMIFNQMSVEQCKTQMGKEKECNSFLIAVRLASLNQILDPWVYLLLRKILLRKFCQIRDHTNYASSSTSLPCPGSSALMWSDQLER


Experiments:
Test in all cases: co-IP; HEK293T cells transfected with 3xHA-GPCR and 2xFlag-MRAP1 or MRAP2; GPCR immunoprecipitated with rabbit anti-HA, Protein A/G agarose, overnight at 4°C; MRAP detected by mouse anti-Flag blot
[1] = biological target: G protein‐coupled receptor 68 (mouse) (UniProt Q8BFQ3)
[2] = biological target: Prokineticin receptor 1 (mouse) (UniProt Q9JKL1)
[3] = biological target: T1, Somatostatin receptor 5 (mouse)
[4] = biological target: Opioid receptor‐like 1 (mouse) (UniProt P35377)
[5] = biological target: T2, Prostaglandin E receptor 3 (subtype EP3) (mouse)
[6] = biological target: Neuropeptide FF receptor 2 (mouse) (UniProt Q924H0)
[7] = biological target: Melanocortin 2 receptor (mouse) (UniProt Q64326)

| binding [1] | binding [2] | binding [3] | binding [4] | binding [5] | binding [6] | binding [7] | Binder |
| --- | --- | --- | --- | --- | --- | --- | --- |
| no binding | binds | binds | binds | binds | binds | binds | melanocortin receptor accessory protein MRAP2 (protein, UniProt D3Z1Q2 1-207) MEMSAQRLASNRTSPQSPSNSDYTWEYEYYEIGPVSFEGLKAHKYSIVIGFWVGLAVFVIFMFFVLTLLTKTGAPHQDNAESSERRFRMNSFVSDFGKPLESDKVFSRQGNEESRSLFHCYINEVEHLDRVKVCHQTTAIDSDVHLQEASRSSGRPEEELARFMKFDIPNFVNTEQSSFGEDDLLISEAPVLLENKPVSQTSRIDLD |
| no binding | binds | binds | binds | binds | binds | binds | melanocortin receptor accessory protein MRAP1 (protein, UniProt Q9D159 1-127) MANGTDASVPLTSYEYYLDYIDLIPVDEKKLKANKHSIVIALWLSLATFVVLLFLILLYMSWSGSPQMRHSPQPQPICSWTHSFNLPLCLRRASLQTTEEPGRRAGTDQWLTQQSPSASAPGPLALP |
